Out of some 210,000 compounds screened, about 5,900 (2.8%) were called active. Inconclusive results, whose numbers are uncertain, are shown with a selection of clear calls. The call rests on the fitted dose curve; in most records, active means well fitted activation curve with a large enough effect; inconclusive means small, poorly fitted or top-dose-only effect; inactive means no such curve, though single readings can be large or run the other way. Where the call is inconclusive, the potency comes from a doubtful curve fit.
experiment: qHTS Assay for Enhancers of SMN2 Splice Variant Expression; conditions: HEK293 SMN2-luciferase splicing reporter, luminescence, 30-36 h; activity change, positive = activation: at 46.1 µM (top of the series); further: nearly all actives have a fitted effect of over 55% in size; on activity change, positive = activation: % of control where 0% means no effect
How it was run: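 qHTS luciferase splicing reporter: luminescence rises when SMN2 exon 7 is included in transfected HEK293 cells. Compound exposure lasted 30-36 h at 37C, with 4.5 mM final sodium butyrate as control, followed by a ONE-Glo read.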
Potency means the concentration at half of the fitted maximal effect; tags describe the fitted curve by direction and shape.

SMILES	activity change, positive = activation	Potency
CCOC(=O)CC(NC(=O)Cc1ccc(F)cc1)c1ccccc1Cl (stereo unspecified)	inactive: -17.8% [at 1.84 µM]	
Cc1ccc(N2C(=O)N(c3ccc(C)cc3)C3CS(=O)(=O)CC32)cc1 (stereo unspecified)		inactive
CCc1ccc(/C=N/NC(=O)c2c[nH]c3ccccc23)s1		active: 6.31 µM
Nc1c(C(=O)NC2CCCC2)sc2nc(-c3cccs3)ccc12		inactive
O=C(NCc1cccs1)c1cc2ccccc2o1		inactive
Cc1nc(/N=C(\N)NC(=O)c2ccccc2)nc2ccccc12		active: 17.8 µM
CC(C)C(=O)Nc1cccc(-c2nc3ccccc3o2)c1		inactive
O=C(NC1CCCCC1)N1CCN(c2ccccc2)CC1		inconclusive: 0.0708 µM [activator, full curve, poor fit]
COc1ccc(-c2nc(SCc3ccccc3)n(C(=O)c3ccco3)n2)cc1		inconclusive: 20 µM [activator, single point]
Nc1ncc(-c2cc3ccccc3oc2=O)s1		active: 15.8 µM
OC1CCCN(C(=S)Nc2ccc(SC(F)F)cc2)C1 (stereo unspecified)		inconclusive: 12.6 µM [activator, partial curve, poor fit]
Cc1ccc(NC(=O)N2CC3CCCN3c3ccccc32)cc1C (stereo unspecified)		inconclusive: 35.5 µM [activator, single point]
COC(=O)CCS(=O)(=O)c1nc(-c2ccccc2)cc(C(F)(F)F)n1		active: 12.6 µM
O=C(Cn1nnc2ccccc2c1=O)NCCc1ccc(F)cc1		inconclusive: 5.62 µM [activator, single point]
COc1cc(/C=N/NC(=O)c2sc(N)c(C#N)c2C)ccc1O		inactive
O=C(CSc1nc(Nc2ccccc2)nc(N2CCOCC2)n1)Nc1ccc([N+](=O)[O-])cc1		inactive
O=C(O)CCC(=O)Nc1ccc(N2CCCCCC2)cc1		inconclusive: 7.08 µM [activator, partial curve]
Cc1ccn2c(NC(=O)c3cccc(Cl)c3)c(-c3ccccc3)nc2c1		inactive
CCCn1c(=O)c2ccccc2n2c(SCc3nc4ccccc4s3)nnc12		inconclusive: 12.6 µM [activator, partial curve]
O=C(Nc1ccc2c(c1)OCCO2)c1ccncc1		inconclusive: 35.5 µM [activator, single point]
O=C(COc1ccccc1Br)c1ccc(O)cc1O		inactive
CCc1ccccc1OCC(=O)Nc1ccc(S(N)(=O)=O)cc1		active: 35.5 µM
CCCN1C(=O)c2ccccc2NC1c1ccc(OC)cc1O (stereo unspecified)		inconclusive: 31.6 µM [activator, single point]
COc1ccc(-c2nc3ccccc3o2)cc1NC(=O)c1cccc2c(Cl)cccc12		inactive
O=C1CC(c2ccccc2)Sc2ccccc2N1 (stereo unspecified)		inconclusive: 17.8 µM [activator, single point]
CCC(=O)Nc1cc(OC)c(NC(=O)c2ccccc2)cc1OC		inconclusive: 0.631 µM [activator, full curve, poor fit]

SMILES	activity change, positive = activation	Potency
O=[N+]([O-])c1ccc(CSc2nc3ccccc3[nH]2)cc1		active: 15.8 µM
CC(=O)NC1CC2CCCC(C1)N2CC(=O)N1CCCc2ccccc21 (stereo unspecified)		inconclusive: 0.0032 µM [activator, full curve, poor fit]
O=c1c2c(nc3cc(-c4ccc(F)cc4)[nH]n13)CCCC2		inconclusive: 4.47 µM [activator, single point]
COc1cccc(/C=C2\SC(=S)N(N3CCOCC3)C2=O)c1OC		inactive
Cc1ccc2cccc(S(=O)(=O)Nc3c(C)n(C)n(-c4ccccc4)c3=O)c2n1		inconclusive: 3.55 µM [activator, full curve, poor fit]
Clc1ccc(/C=N/Nc2nc(Cl)nc3ccccc23)cc1		inactive
O=C(O)c1cc2cc(Cc3cccnc3)ccc2o1		inactive
Cc1ccccc1C(=O)NNC(=O)c1cc(N)cc([N+](=O)[O-])c1		inconclusive: 35.5 µM [activator, single point]
CCOC(=O)c1cc(-c2ccc(OC)cc2F)nc2c1c(C)nn2CCC#N		inactive
Cc1cc(C)n2nc(CNC(=O)c3cccc(N(C)C)c3)nc2n1		inconclusive: 14.1 µM [activator, single point]
Cc1cccc(OCC(=O)Nc2ccc3c(c2)OCCO3)c1		inactive
Cc1nc2c(-c3ccccc3)c(C)nn2c(N)c1-c1ccccc1		active: 12.6 µM
CSc1ccc(/C=N/NC(=O)c2cc(O)cc(O)c2)cc1		inconclusive: 35.5 µM [activator, single point]
O=c1[nH]c(-c2ccccn2)cc2ccccc12		active: 15.8 µM
CCCc1nnc(NC(=O)c2c(O)c3c([nH]c2=O)CCCC3)s1		inactive
CCOC(=O)c1cccc(NC(=O)c2ccc(N(C)C)cc2)c1		inconclusive: 22.4 µM [activator, single point]
CSc1nc(NCC(C)C)c2c3c(sc2n1)CN(C)CC3		inconclusive: 3.98 µM [activator, single point]
Nc1ccc(C(=O)OCc2nc3cc4ccccc4cc3[nH]2)cc1		inconclusive: 28.2 µM [activator, single point]
COc1ccc(OC)c(Nc2ncnc3c2cnn3-c2cccc(C)c2)c1		inconclusive: 2.51 µM [activator, partial curve]
COc1ccc(C(=O)NNC(=O)c2ccccc2[N+](=O)[O-])cc1		inconclusive: 7.08 µM [activator, partial curve]
Cc1nc(-c2cccc(C(F)(F)F)c2)sc1C(=O)O		inconclusive: 17.8 µM [activator, single point]
S=c1[nH]c(-c2ccc(Cl)cc2)cs1		inactive
O=C(N/N=C/C(Br)=C\c1ccccc1)c1ccc2nc[nH]c2c1		inconclusive: 17.8 µM [activator, partial curve]
Cc1ccccc1Oc1ccc(Oc2ccccc2C)nn1		inconclusive: 11.2 µM [activator, partial curve]
CC(=O)Nc1ccc(S(=O)(=O)Nc2ccc3c(c2)C(=O)OC3)cc1		inactive
